# Some of the results follow.
# Columns and labels:
# Assay in all cases: glycan array binding signal (z-score within array); higher = stronger binding
# Conditions in all cases: glycan notation: IUPAC condensed, linker removed
# Gal3S(b1-4)Glc6S = target: Gal3S(b1-4)Glc6S
# In short: (§1)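 Glycan array data were curated from 3228 arrays in the Consortium for Functional Glycomics database and kept only where the protein sequence was available. Glycan names were converted to IUPAC-condensed notation, and columns mapping to the same glycan were averaged. The binding signal is a within-array Z-score, averaged across arrays of the same protein sequence at different concentrations or buffers and across linkers. Negative Z-scores can be read as non-binding.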
# Gal3S(b1-4)GlcNAc = target: Gal3S(b1-4)GlcNAc
# In short: as §1
# [1] = target: Gal3S(b1-4)[Fuc(a1-3)]Glc6S
# In short: as §1
# [2] = target: Gal3S(b1-4)[Fuc(a1-3)]GlcNAc
# In short: as §1
# [3] = target: Gal3S(b1-4)[Fuc(a1-3)]GlcNAc6S
# In short: as §1
# Gal3S4S(b1-4)GlcNAc = target: Gal3S4S(b1-4)GlcNAc
# In short: as §1
# Gal3S6S(b1-4)GlcNAc = target: Gal3S6S(b1-4)GlcNAc
# In short: as §1
# Gal3S6S(b1-4)GlcNAc6S = target: Gal3S6S(b1-4)GlcNAc6S
# In short: as §1
# Gal4S(b1-4)GlcNAc = target: Gal4S(b1-4)GlcNAc
# In short: as §1
# Gal4S6S(b1-4)GlcNAc = target: Gal4S6S(b1-4)GlcNAc
# In short: as §1
# Gal6P(b1-4)GlcNAc = target: Gal6P(b1-4)GlcNAc
# In short: as §1
# Gal6S(b1-3)GlcNAc = target: Gal6S(b1-3)GlcNAc
# In short: as §1
# Gal6S(b1-3)GlcNAc6S = target: Gal6S(b1-3)GlcNAc6S
# In short: as §1
# Gal6S(b1-4)Glc = target: Gal6S(b1-4)Glc
# In short: as §1
# Gal6S(b1-4)Glc6S = target: Gal6S(b1-4)Glc6S
# In short: as §1
# Gal6S(b1-4)GlcNAc = target: Gal6S(b1-4)GlcNAc
# In short: as §1
# Gal6S(b1-4)GlcNAc6S = target: Gal6S(b1-4)GlcNAc6S
# In short: as §1
# GalNAc(a1-3)Gal = target: GalNAc(a1-3)Gal
# In short: as §1
# GalNAc(a1-3)GalNAc = target: GalNAc(a1-3)GalNAc
# In short: as §1
# [4] = target: GalNAc(a1-3)GalNAc(a1-3)Gal(a1-4)Gal(b1-4)GlcNAc
# In short: as §1
# [5] = target: GalNAc(a1-3)GalNAc(b1-3)Gal(a1-4)Gal(b1-4)Glc
# In short: as §1
# GalNAc(b1-3)Gal = target: GalNAc(b1-3)Gal
# In short: as §1
# [6] = target: GalNAc(b1-3)Gal(a1-4)Gal(b1-4)GlcNAc
# In short: as §1
# [7] = target: GalNAc(b1-3)Gal(a1-4)Gal(b1-4)GlcNAc(b1-3)Gal(b1-4)Glc
# In short: as §1
# [8] = target: GalNAc(b1-3)Gal(a1-6)Gal(b1-4)Glc
# In short: as §1
# GalNAc(b1-3)GalNAc = target: GalNAc(b1-3)GalNAc
# In short: as §1
# GalNAc(b1-3)GlcNAc = target: GalNAc(b1-3)GlcNAc
# In short: as §1
# GalNAc(b1-4)Gal(b1-4)Glc = target: GalNAc(b1-4)Gal(b1-4)Glc
# In short: as §1
# GalNAc(b1-4)GlcNAc = target: GalNAc(b1-4)GlcNAc
# In short: as §1
# [9] = target: GalNAc(b1-4)GlcNAc(b1-2)Man
# In short: as §1
# [10] = target: GalNAc(b1-4)GlcNAc(b1-2)Man(a1-3)[GalNAc(b1-4)GlcNAc(b1-2)Man(a1-6)]Man(b1-4)GlcNAc(b1-4)GlcNAc
# In short: as §1
# [11] = target: GalNAc(b1-4)GlcNAc(b1-3)GalNAc(b1-4)GlcNAc
# In short: as §1
# GalNAc(b1-4)GlcNAc6S = target: GalNAc(b1-4)GlcNAc6S
# In short: as §1
# GalNAc(b1-6)GalNAc = target: GalNAc(b1-6)GalNAc
# In short: as §1
# GalNAc3S(b1-4)GlcNAc = target: GalNAc3S(b1-4)GlcNAc
# In short: as §1
# GalNAc3S(b1-4)GlcNAc3S = target: GalNAc3S(b1-4)GlcNAc3S
# In short: as §1
# [12] = target: GalNAc3S(b1-4)[Fuc(a1-3)]GlcNAc
# In short: as §1
# GalNAc4S6S(b1-4)GlcNAc = target: GalNAc4S6S(b1-4)GlcNAc
# In short: as §1
# GalNAc6S(b1-4)GlcNAc = target: GalNAc6S(b1-4)GlcNAc
# In short: as §1
# Glc(a1-4)Glc = target: Glc(a1-4)Glc
# In short: as §1
# [13] = target: Glc(a1-4)Glc(a1-4)Glc(a1-4)Glc
# In short: as §1
# Glc(a1-6)Glc(a1-6)Glc = target: Glc(a1-6)Glc(a1-6)Glc
# In short: as §1
# [14] = target: Glc(a1-6)Glc(a1-6)Glc(a1-6)Glc
# In short: as §1
# Glc(b1-4)Glc = target: Glc(b1-4)Glc
# In short: as §1
# Glc(b1-6)Glc = target: Glc(b1-6)Glc
# In short: as §1
binder,measurement,setting,value
Clrb (Mus musculus) (protein) ITGATKTEQIPVNKTYAACPQNWIGVENKCFYFSEYPSNWTFAQAFCMAQEAQLARFDNQDELNFLMRYKANFDSWIGLHRESSEHPWKWTDNTEYNNTIPIRGEERFAYLNNNGISSTRIYSLRMWICSKLNSYSLHCQTPFFPSGTKHHHHHHHHG,glycan array binding signal (z-score),Gal3S(b1-4)Glc6S,-0.129
same,glycan array binding signal (z-score),Gal3S(b1-4)GlcNAc,-0.071
same,glycan array binding signal (z-score),[1],0.329
same,glycan array binding signal (z-score),[2],-0.343
same,glycan array binding signal (z-score),[3],-0.153
same,glycan array binding signal (z-score),Gal3S4S(b1-4)GlcNAc,-0.119
same,glycan array binding signal (z-score),Gal3S6S(b1-4)GlcNAc,-0.099
same,glycan array binding signal (z-score),Gal3S6S(b1-4)GlcNAc6S,-0.067
same,glycan array binding signal (z-score),Gal4S(b1-4)GlcNAc,-0.31
same,glycan array binding signal (z-score),Gal4S6S(b1-4)GlcNAc,-0.101
same,glycan array binding signal (z-score),Gal6P(b1-4)GlcNAc,-0.424
same,glycan array binding signal (z-score),Gal6S(b1-3)GlcNAc,-0.35
same,glycan array binding signal (z-score),Gal6S(b1-3)GlcNAc6S,-0.357
same,glycan array binding signal (z-score),Gal6S(b1-4)Glc,-0.162
same,glycan array binding signal (z-score),Gal6S(b1-4)Glc6S,-0.472
same,glycan array binding signal (z-score),Gal6S(b1-4)GlcNAc,0.05
same,glycan array binding signal (z-score),Gal6S(b1-4)GlcNAc6S,-0.187
same,glycan array binding signal (z-score),GalNAc(a1-3)Gal,0.67
same,glycan array binding signal (z-score),GalNAc(a1-3)GalNAc,-0.464
same,glycan array binding signal (z-score),[4],-0.541
same,glycan array binding signal (z-score),[5],-0.444
same,glycan array binding signal (z-score),GalNAc(b1-3)Gal,-0.36
same,glycan array binding signal (z-score),[6],2.59
same,glycan array binding signal (z-score),[7],-0.447
same,glycan array binding signal (z-score),[8],-0.023
same,glycan array binding signal (z-score),GalNAc(b1-3)GalNAc,-0.312
same,glycan array binding signal (z-score),GalNAc(b1-3)GlcNAc,-0.506
same,glycan array binding signal (z-score),GalNAc(b1-4)Gal(b1-4)Glc,-0.109
same,glycan array binding signal (z-score),GalNAc(b1-4)GlcNAc,3.73
same,glycan array binding signal (z-score),[9],1.14
same,glycan array binding signal (z-score),[10],4.64
same,glycan array binding signal (z-score),[11],2.91
same,glycan array binding signal (z-score),GalNAc(b1-4)GlcNAc6S,3.08
same,glycan array binding signal (z-score),GalNAc(b1-6)GalNAc,0.452
same,glycan array binding signal (z-score),GalNAc3S(b1-4)GlcNAc,0.428
same,glycan array binding signal (z-score),GalNAc3S(b1-4)GlcNAc3S,-0.394
same,glycan array binding signal (z-score),[12],-0.447
same,glycan array binding signal (z-score),GalNAc4S6S(b1-4)GlcNAc,-0.332
same,glycan array binding signal (z-score),GalNAc6S(b1-4)GlcNAc,4.38
same,glycan array binding signal (z-score),Glc(a1-4)Glc,-0.439
same,glycan array binding signal (z-score),[13],-0.498
same,glycan array binding signal (z-score),Glc(a1-6)Glc(a1-6)Glc,-0.34
same,glycan array binding signal (z-score),[14],-0.192
same,glycan array binding signal (z-score),Glc(b1-4)Glc,-0.276
same,glycan array binding signal (z-score),Glc(b1-6)Glc,-0.417

# From the supplement of paper PMC8728848
